According to the antibiotic and cytotoxicity screens of Wong et al. (2023):
The other results are listed elsewhere or left out.

tested on: S. aureus RN4220; test: growth inhibition call (relative growth <= 0.2); details: 50 µM

Growth inhibition call, inactive:
C[C@H](CO)N1C[C@H](C)[C@@H](CN(C)Cc2ccccc2)OCCCC[C@H](C)Oc2ccc(NC(=O)c3ccccc3)cc2C1=O
C[C@@H]1CN([C@H](C)CO)C(=O)c2cc(NC(=O)C3CCCCC3)ccc2O[C@@H](C)CCCCO[C@H]1CN(C)C(=O)C1CCCCC1
CS(=O)(=O)N1C[C@@H]2COC[C@@]2(CN2CCOCC2)C1
CC(C)NC(=O)Nc1ccc2c(c1)C(=O)N([C@H](C)CO)C[C@@H](C)[C@H](CN(C)S(=O)(=O)c1cn(C)cn1)OCCCC[C@@H](C)O2
CN(C)C(=O)C[C@H]1C=C[C@@H](NC(=O)C2CC2)[C@@H](CO)O1
C[C@@H]1CN([C@@H](C)CO)C(=O)c2cc(NS(=O)(=O)c3ccc(Cl)cc3)ccc2O[C@@H](C)CCCCO[C@@H]1CN(C)CC1CCCCC1
C[C@H](NC(=O)N(C)C[C@@H]1OCc2ccccc2-c2ccccc2C(=O)N([C@@H](C)CO)C[C@@H]1C)c1ccccc1
C[C@H](CO)N1C[C@H](C)[C@H](CN(C)S(C)(=O)=O)OCCCC[C@H](C)Oc2ccc(NC(=O)Nc3cccc4ccccc34)cc2C1=O
CN(C)CC(=O)N[C@@H]1CC[C@H](CC(=O)NCCN2CCCCC2)O[C@@H]1CO
C[C@H](CO)N1C[C@H](C)[C@H](CN(C)S(=O)(=O)c2ccccc2)Oc2ncc(-c3ccc(F)cc3)cc2C1=O
CO[C@@H]1CN(C)C(=O)c2cc(NS(C)(=O)=O)ccc2OC[C@H](C)N(C(=O)CN(C)C)C[C@H]1C
CCOc1ccc2nc(C34CC5CC(CC(C5)C3)C4)ccc2c1
